Assay results reported in patent US20130251703A1 (Novartis, published 2013).

What was measured:
MOR12604 = molecular target: T1, MOR12604; assay: solution equilibrium titration (SET), ECL readout; soluble HER3-Tag (human, by the legend of FIG. 1) titrated against a constant amount of MOR12604 IgG, remaining free IgG detected
T1 construct: Tested as IgG

MOR12615 = molecular target: T2, MOR12615; assay: solution equilibrium titration (SET), ECL readout; soluble human HER3-Tag titrated against a constant amount of MOR12615 IgG, remaining free IgG detected
T2 construct: Tested as IgG
T2 sequence (VH, as listed by the source, chain 1 of 2): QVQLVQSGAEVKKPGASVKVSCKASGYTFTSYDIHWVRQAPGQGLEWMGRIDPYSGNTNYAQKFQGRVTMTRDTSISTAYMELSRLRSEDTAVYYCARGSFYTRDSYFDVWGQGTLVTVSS
T2 sequence (VL, as listed by the source, chain 2 of 2): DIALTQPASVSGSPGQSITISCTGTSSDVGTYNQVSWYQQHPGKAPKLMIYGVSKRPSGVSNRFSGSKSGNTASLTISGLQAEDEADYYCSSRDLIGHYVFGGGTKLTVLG

T1 sequence (VH, as listed by the source, chain 1 of 2): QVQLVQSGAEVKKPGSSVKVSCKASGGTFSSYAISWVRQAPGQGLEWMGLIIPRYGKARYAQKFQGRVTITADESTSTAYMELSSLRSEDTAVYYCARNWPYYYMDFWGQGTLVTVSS
T1 sequence (VL, as listed by the source, chain 2 of 2): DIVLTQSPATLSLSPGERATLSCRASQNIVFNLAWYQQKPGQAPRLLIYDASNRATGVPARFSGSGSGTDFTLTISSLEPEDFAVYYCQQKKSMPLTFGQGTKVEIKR

B1: Hu HER3: CD33-[Human HER3, […]]-TAG (receptor)
chain: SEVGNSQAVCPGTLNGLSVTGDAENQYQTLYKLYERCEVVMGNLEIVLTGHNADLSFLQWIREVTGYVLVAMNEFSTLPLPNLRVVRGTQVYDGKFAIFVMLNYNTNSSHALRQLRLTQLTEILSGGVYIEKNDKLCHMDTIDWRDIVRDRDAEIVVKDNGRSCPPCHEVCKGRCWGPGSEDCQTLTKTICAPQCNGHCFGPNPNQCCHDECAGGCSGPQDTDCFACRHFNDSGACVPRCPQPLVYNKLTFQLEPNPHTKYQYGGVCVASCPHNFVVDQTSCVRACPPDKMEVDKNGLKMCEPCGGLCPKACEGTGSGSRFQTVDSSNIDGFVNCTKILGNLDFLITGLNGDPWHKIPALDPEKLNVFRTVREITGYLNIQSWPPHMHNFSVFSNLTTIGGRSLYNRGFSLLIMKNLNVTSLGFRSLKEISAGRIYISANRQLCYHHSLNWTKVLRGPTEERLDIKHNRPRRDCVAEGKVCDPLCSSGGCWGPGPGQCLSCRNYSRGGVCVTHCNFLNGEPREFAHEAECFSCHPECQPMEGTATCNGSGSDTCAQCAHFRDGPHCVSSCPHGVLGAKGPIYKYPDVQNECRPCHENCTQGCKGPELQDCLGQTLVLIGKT
notes: also called hu HER3-Tag; HER3-Tag; not shown: C-terminal TAG (e.g. FLAG TAG)
MOR12604
  IC50 (read off the curve): ~3 nM
MOR12615
  IC50 (read off the curve): ~0.3 nM
